Experimental data taken from PubChem BioAssay AID463173 (ICCB-Longwood Screening Facility, Harvard Medical School, 2010).
The whole screen tested about 52,000 compounds, of which about 4,300 (8.3%) were called active. Rule as the data show it: active = survival mostly below about 52% (no sharp cut-off); inactive = mostly above about 56%. The list shows a part of the results.

system: DeltatarO mutant; assay: growth inhibition of S. aureus wild type versus tarO mutant, primary screen, teichoic acid synthesis inhibitors, RN4220, OD600 (AID 463173); conditions: OD600, 18 h, stronger effect = lower value, screened at 18.75 µg/mL (by protocol)

SMILES | survival
CN(C)c1ccc(/C=C/c2nc(-c3ccccc3O)n(-c3ccccc3)n2)cc1 | active: 42%
O=C(Nc1cccc(NC(=O)C2CCCO2)c1)c1ccco1 (configuration not stated) | inactive: 103%
Cc1c(C(=O)NCc2ccc(F)cc2)oc2ccc(S(=O)(=O)N3CCCCC3)cc12 | inactive: 82%
CCOC(=O)C1CCCN(c2nc3c(S(=O)(=O)c4ccc(CC)cc4)nnn3c3ccsc23)C1 (configuration not stated) | inactive: 51%
CCCCc1noc(-c2ccc(OC(=O)c3ccccc3)cc2)n1 | inactive: 93%
Cc1ccc2c(c1)c1c(c(=O)n(-c3cccc(Cl)c3)c(=O)n1CC(=O)NCC1CCCO1)n2C (configuration not stated) | inactive: 72%
COc1ccc(NC(=O)[C@H]2O[C@@H]3OC(C)(C)O[C@@H]3[C@H]3OC(C)(C)O[C@H]32)c(OC)c1 | inactive: 91%
Cc1c(C)n(CC(O)CNCc2ccco2)c2ccccc12 (configuration not stated) | inactive: 90%
COc1cc(C(=O)NCC(c2ccc3c(c2)OCO3)N2CCOCC2)cc(OC)c1OC (configuration not stated) | inactive: 57%
CCc1cccc(NC(=O)C2CCCN(c3ncnc4onc(-c5ccc(F)cc5)c34)C2)c1 (configuration not stated) | inactive: 95%
COc1ccc(-c2noc(CSCC(=O)Nc3cc(OC)c(OC)c(OC)c3)n2)cc1OC | inactive: 96%
CCn1cc(C(=O)OCC(=O)Nc2ccc(C)c(Cl)c2)c(=O)c2ccc(C)nc21 | active: 63%
CCc1nn(C)c(N)c1C | inactive: 83%
CCN1CCSc2ccc(C(=O)NCc3ccc(OC(C)C)cc3)cc21 | inactive: 62%
O=C(N/C(=C\c1ccc(O)cc1)C(=O)N1CCCCC1)c1ccccc1 | inactive: 79%
CCOc1ccc(-c2cc3c(=O)n(CC(=O)NCc4ccc(C)cc4)ccn3n2)cc1 | inactive: 99%
CCOc1ccc(NC(=O)CCC(=O)Nc2cc(OC)c(NC(=O)c3ccco3)cc2OC)cc1 | inactive: 76%
CN(C(=O)CCc1nc(-c2ccccc2F)no1)c1ccc(Cl)cc1 | inactive: 56%
O=S(=O)(c1ccc(OC(F)(F)F)cc1)N1CCC(c2nnnn2-c2ccc(F)cc2)CC1 | inactive: 71%
CCCCN1CC(c2nc3ccccc3n2CCCCOc2cc(C)ccc2C)CC1=O (configuration not stated) | active: 15%
O=C(CS(=O)(=O)c1cccc2nsnc12)Nc1ccccc1Cl | inactive: 71%
COc1ccc(N(Cc2cc3ccccc3[nH]c2=O)C(=O)c2cccc(Cl)c2)cc1 | inactive: 87%

SMILES | survival
CCOC(=O)Cc1ccc(NC(=O)NCc2c(-n3cccc3)sc3c2CCCC3)cc1 | inactive: 88%
CC(=O)N1c2ccccc2CC1C(=O)N1CCN(c2ccccc2)CC1 (configuration not stated) | inactive: 101%
CN1CCCC(OC(=O)c2ccc(F)cc2)C1 (configuration not stated) | inactive: 87%
Cc1ccc(NC(=O)c2c(C)cc(C)nc2SCC(=O)Nc2ccc(Br)cc2)cc1 | active: 40%
Cc1ccc(C(=O)N/C(=C/c2ccccc2)C(=O)NCc2ccco2)cc1 | inactive: 95%
COc1cccc(-n2ccnc2SCC(=O)Nc2c(C)cc(C)cc2C)c1 | inactive: 97%
CCCCNC(=O)c1ccc2c(c1)N(Cc1ccc(F)cc1)C(=O)c1ccccc1S2=O (configuration not stated) | inactive: 65%
Cc1ccc(NC(=O)/C=C\C(=O)N(c2ccc(C(C)C)cc2)C(C(=O)NCc2ccco2)c2ccc(Cl)cc2)cc1 (configuration not stated) | inactive: 89%
CCSc1ncc(Cl)c(C(=O)N2CCN(c3ccccc3OC)CC2)n1 | inactive: 76%
CCOCCCNC(=O)c1ccc(-n2c(-c3ccccc3)cc3c2CCCC3)cc1 | inactive: 69%
O=C(/C=C/c1ccccc1)Nc1cc(-c2nc3cc(Cl)ccc3o2)ccc1Cl | active: 46%
Cc1cccc(OCC(=O)Nc2cccc(OCc3cc(=O)n4cccc(C)c4n3)c2)c1 | inactive: 109%
CN1CCC(N(Cc2ccc3c(c2)OCO3)C(=O)c2cn(Cc3ccccc3)c3ccsc23)CC1 | inactive: 110%
CC1CCCN(C(=O)c2cc3ccc4cccnc4c3[nH]2)C1 (configuration not stated) | inactive: 92%
CCOc1ccc(N2CC(NC(=O)c3ccco3)CC2=O)cc1 (configuration not stated) | inactive: 86%
Cc1ccc(-n2c(C)cc(C(=O)C(=O)Nc3ccccc3)c2C)c(C)c1 | inactive: 91%
COc1ccc(CCNC(=O)CCn2c(=O)c3ccccc3n(Cc3ccccc3F)c2=O)cc1OC | active: 93%
Cc1cccc(C(=O)OCc2cc(=O)n3ccsc3n2)c1 | inactive: 84%
COc1ccc(Cn2ccc3nc(C)c(C(=O)Nc4ccc(OC)cc4)cc3c2=O)cc1 | inactive: 89%
CC(C)(C)c1cc(C(F)(F)F)nc(SCCNC(=O)c2cnn3cccnc23)n1 | inactive: 80%
COc1ccc(CNC(=O)C2CCN(S(=O)(=O)c3c(C)noc3/C=C/c3ccccc3F)CC2)cc1 | inactive: 85%
O=C(Cn1ncn2c(cc3sccc32)c1=O)NCCc1ccccc1 | inactive: 91%

SMILES | survival
COc1ccc(CCNC(=O)CCc2c(C)c3cc4c(C)c(C)oc4cc3oc2=O)cc1OC | inactive: 103%
Cc1ccc2c(=O)cc(C(=O)Nc3ccc(S(=O)(=O)N(C)c4ccccc4)cc3)oc2c1C | active: 50%
Cc1ccc(-c2nc3c(c(SCc4ccc(Br)cc4)n2)Cc2c(CO)cnc(C)c2O3)cc1 | inactive: 67%
O=C(CSc1nc2c([nH]c3ccccc32)c(=O)n1-c1ccc(Cl)cc1)N1CCc2ccccc21 | inactive: 67%
O=C(Nc1ccccc1)NC1CC2CCC(C1)N2Cc1nnnn1Cc1ccc2c(c1)OCO2 (configuration not stated) | inactive: 81%
CSc1cccc(NC(=O)c2cnn(-c3ccc(F)cc3)c2-n2cccc2)c1 | inactive: 84%
CCSc1nn(CC(=O)Nc2cccc(CC)c2)c(N)c1S(=O)(=O)c1ccccc1 | inactive: 101%
COCCCNC(=O)C1CCN(Cc2cc3ccccc3n2Cc2ccccc2C)CC1 | inactive: 71%
Cc1oc(-c2ccc(Cl)cc2)nc1CN1CCCC(C(=O)NCCc2ccc(Cl)cc2)C1 (configuration not stated) | inactive: 54%
Nc1ncnc2c1c1nc3ccccc3nc1n2CCc1ccccc1 | inactive: 88%
Cc1ccc(S(=O)(=O)c2c(O)cc(C)c(NS(=O)(=O)c3ccc(Br)cc3)c2C)cc1 | inactive: 50%
CC(=O)N1c2ccccc2C(=O)C1N1CCN(c2ccccc2F)CC1 (configuration not stated) | inactive: 90%
COc1ccc(-c2noc(CN(C)S(=O)(=O)c3c(C)cc(C)cc3C)n2)cc1OC | inactive: 45%
CCC(C(=O)Nc1cccc(Cl)c1C)n1nc(C)c2sc3ccccc3c2c1=O (configuration not stated) | inactive: 72%
COc1ccc(C)cc1NC(=O)c1ccc(NS(=O)(=O)c2c(C)noc2C)cc1 | inactive: 83%
Cc1[nH]n(-c2ccccc2)c(=O)c1/C=N/NC(=O)c1ccccc1 | inactive: 50%
Cc1ccc(-c2nc(CCNC(=O)c3ccc(C)c(C)c3)cs2)cc1 | inactive: 88%
CCOC(=O)c1ccc(NC2=CC(c3ccc(OCC)cc3)N(c3ccc(C(=O)OCC)cc3)C2=O)cc1 (configuration not stated) | inactive: 59%
CCOC(=O)c1cnc2cc(C(F)(F)F)ccc2c1Nc1cc(C)ccc1OC | inactive: 71%
CC(C)(C)OC(=O)N1CCC(c2c(C(=O)NCc3ccccc3)cnn2-c2cccc(F)c2)CC1 | inactive: 108%
CCCCn1cc(S(=O)(=O)c2ccc(C)cc2)c(=O)c2cc(F)c(N3CCCCC3)cc21 | inactive: 90%
Cc1cc(O)c(C(c2ccccc2)N2CCCCC2)c(=O)n1Cc1ccco1 (configuration not stated) | inactive: 80%

SMILES | survival
CCOc1ccccc1NC(=O)CSc1nnc2[nH]c(=O)cc(C)n12 | inactive: 124%
COc1ccccc1-c1nc2n(n1)C(c1ccccc1Cl)C(C(=O)Nc1cccnc1)=C(C)N2 (configuration not stated) | inactive: 88%
Cc1c(C(=O)N(Cc2ccccc2F)C2CCS(=O)(=O)C2)oc2ccccc12 (configuration not stated) | inactive: 84%
COc1ccc(-c2nnc(SCC(=O)Nc3cccc(C(F)(F)F)c3)s2)cc1 | inactive: 82%
COc1ccc(S(=O)(=O)NCC(c2cccs2)S(=O)(=O)c2ccccc2)cc1OC (configuration not stated) | inactive: 105%
CCOc1ccc(C(=O)c2cn(CC(=O)Nc3ccc(Cl)cc3)c3cc4c(cc3c2=O)OCO4)cc1 | inactive: 127%
Cc1nn(C)c2c1c(C(F)(F)F)cc(=O)n2C(C)C(=O)Nc1ccccc1F (configuration not stated) | inactive: 80%
CC(=O)N1CCc2cc(Br)cc(S(=O)(=O)CCC(=O)N3CCN(c4ccc(F)cc4)CC3)c21 | inactive: 67%
Cc1cc(NNC(=S)S)nc(N)n1 | inactive: 107%
COc1ccc(NC(=O)c2c(NCc3cccs3)sc3c2CCC(C)C3)c(OC)c1 (configuration not stated) | inactive: 55%
O=C(CSc1nnc(-c2ccccc2Cl)o1)N1CCCc2ccccc21 | active: 35%
COc1cccc(NS(=O)(=O)c2ccc3c(c2)n(C)c(=O)n3C)c1 | inactive: 46%
CN(C(=O)c1ccc2c(c1)N(Cc1cccc(Cl)c1)C(=O)c1ccccc1S2(=O)=O)C1CCCCC1 | inactive: 75%
CSc1cccc(NC(=O)C2CCN(c3nc4ccccc4[nH]3)CC2)c1 | inactive: 75%
Cc1ccc(Cn2c(SCc3ccc(C(=O)NC4CCCCC4)cc3)nc3ccncc32)cc1 | inactive: 71%
COCCNC(=O)c1cnc2sc(N3CCCCC3)nn2c1=O | inactive: 76%
Cc1c(-c2nc(-c3ccccc3)no2)nnn1-c1ccc(F)c(Cl)c1 | inactive: 83%
CCc1ccc(NC(=O)Cn2c(=O)n(-c3ccc(Cl)c(Cl)c3)c(=O)c3c(C)c(C)sc32)cc1 | inactive: 97%
COc1ccc(Cl)c2sc(NC(=O)c3ccc(S(=O)(=O)N4CCOCC4)cc3)nc12 | inactive: 69%
Cc1ccc(CN2CCC(CNC(=O)c3cnn(-c4ccccc4Cl)c3C3CCN(C(=O)OC(C)(C)C)CC3)CC2)cc1 | inactive: 94%
COc1cc(/C=C/c2nc(C#N)c(N3CCN(C)CC3)o2)cc(OC)c1OC | inactive: 73%
